Assay results from the supplement of paper PMC3334620.
Whole data set: some 33,000 sequences, median “E-score (-0.5 to 0.5)” near -0.01, cut for the highest 2% near 0.26. Some of the results follow.

What follows are sequences tested against Ste12 (UniProt P13574) (assay: PBM E-score (8-mer binding enrichment) (E-score (-0.5 to 0.5)); higher = stronger / more preferred TF binding; most listed sequences are background and not binding sites). Conditions: protein concentration: 200 nM; construct: GST-DNA-binding domain.
Method in brief: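 Universal all-10-mer Agilent arrays, fresh or stripped once, were converted to double-stranded form by primer extension. GST-tagged yeast transcription factors from PURExpress in vitro transcription/translation, full-length or DNA-binding domain only, were applied at about 100-200 nM and detected with fluorescent anti-GST. After masliner normalisation, the Universal PBM Analysis Suite scored each ungapped eight-base word together with its reverse complement by E-score.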

| Sequence | PBM E-score |
| --- | --- |
| GGTCTAAC | -0.0601 |
| CTAGCGCC | -0.22 |
| ACCACACG | -0.0448 |
| GCCTGGTA | 0.00276 |
| CATGGAGG | -0.059 |
| CTCCAAAA | 0.183 |
| CAAGCACC | -0.106 |
| CTTACCTA | 0.0594 |
| GACTCGAC | -0.0892 |
| TCGATTAA | 0.159 |
| AGTGCGCC | -0.156 |
| CGGCTATA | 0.089 |
| AACCCCTT | -0.194 |
| CTTTCAGC | -0.0939 |
| GCCGAGAA | 0.0323 |
| AGTTTCTA | 0.16 |
| CCTTTTGA | 0.0927 |
| CAGCGTGG | -0.186 |
| ACGCATCC | -0.014 |
| ATTTGGTC | -0.0115 |
| ACATAACC | 0.114 |
| GTAGAGAC | -0.134 |
| AACCAACT | -0.0386 |
| AAGTGTGC | -0.0675 |
| CACTACCA | 0.0584 |

| Sequence | PBM E-score |
| --- | --- |
| GCTGTTAC | 0.105 |
| CCGTTTAC | -0.0196 |
| CATGTACA | -0.0456 |
| CTTCAGAC | -0.166 |
| CTATGTTA | 0.162 |
| GATTAGAA | 0.0413 |
| ACTCAGCG | -0.0244 |
| GGGCAAGA | 0.107 |
| CTCGCATC | -0.0806 |
| AGCATGAA | 0.0114 |
| ATGACCTC | -0.245 |
| AATGGTCT | -0.167 |
| ACTATGCG | 0.0582 |
| CACGGCTC | 0.0152 |
| GCGTACAA | -0.177 |
| GCGGCTTA | 0.125 |
| GTCAAATA | 0.173 |
| CTTATATA | 0.226 |
| CGCACTTC | -0.0312 |
| AAATTACA | 0.129 |
| CCTCGTTA | 0.049 |
| CTATTTGC | 0.00415 |
| GAGTAGGA | -0.2 |
| CAACTAGA | 0.0762 |
| AAGATATC | 0.103 |

| Sequence | PBM E-score |
| --- | --- |
| AAGATTGT | 0.0785 |
| ATTACTCC | 0.0706 |
| GTAGCCAC | -0.27 |
| GATGATGA | -0.107 |
| AAGATTTG | 0.0432 |
| CAACGTCC | -0.101 |
| CCGTGACG | -0.0381 |
| AATTGGCG | 0.146 |
| AGGGGAAA | -0.0862 |
| AACTGCGC | 0.0711 |
| AGCTAATA | -0.106 |
| CATCGGAA | 0.0374 |
| AATGCACA | 0.0328 |
| AACCCTTG | -0.0917 |
| ATCAGGCG | -0.0721 |
| ATAACCGC | 0.00227 |
| AAATTGAG | 0.0654 |
| ATTAGCGG | -0.0105 |
| CGTTTAGC | -0.0383 |
| GAGTACAC | -0.231 |
| CTAGGTTA | 0.0626 |
| CATAAACA | 0.148 |
| ACAGGTCT | -0.267 |
| GTGGAAAC | 0.087 |
| CTGTCAGC | -0.167 |

| Sequence | PBM E-score |
| --- | --- |
| CGCAACCC | 0.00607 |
| ATCGAGGG | 0.108 |
| ACTACTGG | -0.154 |
| GACTGGAC | -0.204 |
| CTAGACTA | -0.0813 |
| CTAGGGGC | -0.245 |
| CTTAAACA | 0.226 |
| GCCAGTAC | -0.065 |
| CTTTAGTC | -0.0859 |
| ATGCCGCG | 0.0154 |
| GAGGTAGA | -0.142 |
| CCTCATCG | -0.0958 |
| CGAATGCC | 0.0282 |
| CATCTACA | 0.0615 |
| AAGCAAGT | 0.0123 |
| ATCCAAGC | -0.309 |
| ATAGACTA | 0.00373 |
| CCCACTAC | -0.00139 |
| GCATCAAA | 0.0627 |
| AAGACTAC | 0.0284 |
| GACTGGCC | -0.136 |
| CCACGTGC | -0.276 |
| ACCCACGC | 0.0738 |
| CACCTTGA | 0.00979 |
| TTCGAGAA | 0.0432 |

| Sequence | PBM E-score |
| --- | --- |
| CCACGTGG | -0.105 |
| AGACGCAC | -0.163 |
| CCTCGCCA | -0.045 |
| GGCGGCTA | -0.106 |
| AGATCCTA | -0.0903 |
| GTGGTCGA | -0.162 |
| AACACGGG | 0.0924 |
| GGGTCATA | -0.156 |
| ACAAATCC | 0.134 |
| CCGTAAGC | -0.142 |
| AAGTGGTG | -0.038 |
| CGCTTTCC | 0.0604 |
| CAGCCAAA | 0.118 |
| ACTCTTAA | -0.0113 |
| ACTCATGC | -0.11 |
| ACACTCAC | 0.0472 |
| TAACGGCA | -0.0399 |
| AACCTGCG | 0.0448 |
| CCGAGTCG | -0.0887 |
| ACGCGTGA | 0.0295 |
| ACTGTGGC | -0.0114 |
| AACGTACA | -0.0941 |
| GGTAACTA | 0.133 |
| CGGCCGGC | 0.118 |
| CAGGAAAG | -0.0683 |

| Sequence | PBM E-score |
| --- | --- |
| CCTAAAAG | -0.194 |
| CGTGCGTC | 0.00737 |
| CATTCACC | 0.155 |
| CAAGGCTG | -0.0825 |
| GGCAGTCA | -0.148 |
| AACGCCCA | -0.00128 |
| CAGAAACC | 0.142 |
| CGTTCGGA | 0.0375 |
| CACAGGGA | -0.0582 |
| CGCCTTAG | -0.0285 |
| CTCCACTC | -0.174 |
| AGCTGTCA | -0.0399 |
| AACGGCTC | -0.0968 |
| AAACTACT | 0.0741 |
| GACCGGTA | -0.183 |
| CGCGTGAG | -0.0362 |
| AGCGAGCT | 0.181 |
| AGGTTCAC | 0.0171 |
| CAATCTAA | 0.0497 |
| AGTGTATA | -0.149 |
| GAGTTCGC | -0.0738 |
| ACTCCAGG | -0.098 |
| GCTAGTAA | 0.104 |
| ATATCGCG | 0.0898 |
| AACGGAGA | -0.0518 |

| Sequence | PBM E-score |
| --- | --- |
| CACAGGCA | -0.108 |
| CCTAGCCC | -0.0488 |
| AAAGATGT | -0.0272 |
| GAGGAGCC | -0.15 |
| CGTTGATC | -0.00093 |
| CACAGATA | -0.0734 |
| ACGCATTC | 0.0428 |
| AAACACCG | 0.318 |
| ACGATAGC | -0.0268 |
| AGCGACGC | -0.0467 |
| ACTTTAGA | 0.0868 |
| ACTTCACG | -0.121 |
| AGGGACAC | 0.0218 |
| GGGGCTTA | -0.184 |
| CAGTCTGC | -0.0291 |
| GGACCATA | -0.157 |
| ATGACCAC | -0.0736 |
| GATTCAAC | 0.0183 |
| GTGCGGAA | 0.0628 |
| AATTCCGC | 0.0879 |
| AAAAGCAT | 0.178 |
| ATATAGCG | -0.029 |
